42 molecules from ChEMBL document CHEMBL4888484, “Replenishing the malaria drug discovery pipeline: Screening and hit evaluation of the MMV Hit Generation Library 1 (HGL1) against asexual blood stage Plasmodium falciparum ,using a nano luciferase reporter read-out” (2022) can be followed below.

Among all 150,000 compounds or so, about 540 (0.36%) showed an effect of 50% or more. The list shows a part of the results.

By % Inhibition is commonly meant the change of the read-out against control, counted positive when it falls.

This test has as its system Plasmodium falciparum. Briefly: Primary screen in NF54 nanoGlo assay, in single point, at 2uM, 72h; a lower Z score goes with more inhibition. Format: functional, Erythrocyte. The settings on record: timepoint 72 hour.
Take `CC(C)OCCCNC(=O)c1ccc(Cl)o1`: the “% Inhibition” value is on record as -6% and the Z score was determined as 0.99.

For the molecule `O=C1OCCN1CCN1CCCN(c2nc3ccccc3[nH]2)CC1`, the “% Inhibition” value is given as -14% and the Z score was found to be 1.38.

On to `Cc1ccc(C(=O)O)n1Cc1ccc(Cl)cc1`, for which the “% Inhibition” value was -8% and the Z score was found to be 1.14.

Turning to `Nc1cccc(C2CC(=O)NC(=O)C2)c1`, the “% Inhibition” value came to 2% and the Z score was -0.38.

With `O=C(Nc1cnc2ccnn2c1)c1ccc(F)cc1`, the “% Inhibition” value is recorded as 11% and the Z score is reported as -1.44.

Turning to `CN(Cc1ccc(-n2cccn2)cc1)C(=O)C[C@]1(c2ccccc2)CC(=O)N(Cc2cccs2)C1=O`, the “% Inhibition” value is 19% and the Z score was -2.41.

Regarding `CC(CC(=O)N1CCCCCC1)NC1C2CCOC2C1(C)C` (centres undefined), the “% Inhibition” value is listed as -11% and the Z score was found to be 1.13.

For `CN(CC(=O)NCCn1ccnn1)Cc1ccccn1`, the “% Inhibition” value is -7% and the Z score amounted to 1.23.

As to `Cn1nc(C(F)F)cc1C(=O)Nc1cnn2c1NCCC2`, the “% Inhibition” value is -2% and the Z score is reported as 0.28.

For `Cc1cc(N2CCOCC2)ccc1NC(=O)c1cccnc1Nc1ccccc1F`, the “% Inhibition” value stood at 1% and the Z score is -0.1.

Take `Cc1nnc2sc(-c3ccc(NC(=O)COc4ccccc4Cl)cc3)nn12`: the “% Inhibition” value is on record as -49% and the Z score was 5.74.

For the molecule `O=S(=O)(Cc1ccco1)[C@H]1CCN(S(=O)(=O)C2CC2)C1`, the “% Inhibition” value was determined as 6% and the Z score is given as -0.99.

On to `CCCN(CCO)C(=O)c1ccccc1F`, for which the “% Inhibition” value is -17% and the Z score came to 1.97.

Turning to `COc1ccc(F)c(CN2CCC[C@@](O)(CN3CCC(F)(F)CC3)C2=O)c1`, the “% Inhibition” value was 2% and the Z score is on record as -0.3.

Turning to `CC(C)(C)c1ccc(C(=O)Nc2cc(NC(=O)c3ccc(C(C)(C)C)cc3)cc(-c3nc4ccccc4o3)c2)cc1`, the “% Inhibition” value came out at 10% and the Z score is on record as -1.56.

Turning to `O=C(CCCn1cncn1)N1CCC(c2nnc3n2CCCCC3)CC1`, the “% Inhibition” value is -19% and the Z score is 2.49.

On to `CCS(=O)(=O)N1CCN(c2nnc(C3CCCC3)n2C)CC1`, for which the “% Inhibition” value was 0% and the Z score is 0.02.

Turning to `Cc1nc(-c2cccc(CN(C)[C@H](c3ccccn3)C3CC3)c2)[nH]c(=O)c1F`, the “% Inhibition” value is reported as -14% and the Z score is given as 1.54.

Turning to `Cc1cc(CN(C)C(=O)C[C@]2(c3ccccc3)CC(=O)N(Cc3ccc4c(c3)OCO4)C2=O)on1`, the “% Inhibition” value came out at 7% and the Z score was -0.98.

For the molecule `CC(=O)N(CC(F)(F)F)c1ccccc1`, the “% Inhibition” value amounted to 0% and the Z score is recorded as -0.01.

In the case of `CN(C)CCN(C)c1ccc(Br)cc1NCc1cncn1C`, the “% Inhibition” value was 35% and the Z score is on record as -3.63.

For `Cc1ccc(-c2nc(C#N)c(S(=O)(=O)N3CCN(c4cccc(Cl)c4)CC3)o2)cc1`, the “% Inhibition” value is on record as 5% and the Z score was -0.64.

`COCC(=O)N1CCN(C(=O)c2cccc(F)c2)C[C@@H]1C(=O)N[C@@H](CC1CCCCC1)C(N)=O`: the “% Inhibition” value is -5% and the Z score is 0.74.

Regarding `CC(=O)N(CCN1CCCCC1)[C@H]1CCCN(S(=O)(=O)c2ccc(C(C)C)cc2)C1`, the “% Inhibition” value is -10% and the Z score stood at 1.31.

Consider `CC(C)(C#N)C(=O)Nc1ccc(S(C)(=O)=O)c(F)c1`, for which the “% Inhibition” value is listed as -13% and the Z score is recorded as 1.74.

In the case of `COc1cccc2sc(OC3CN(C(=O)Nc4ccccc4F)C3)nc12`, the “% Inhibition” value is on record as -18% and the Z score stood at 2.02.

With `C#CC(C)(C)N(C)Cc1ccc(C(=O)OC)c(F)c1`, the “% Inhibition” value is on record as -14% and the Z score is 2.58.

With `Cc1nnc(CNc2ccc(Oc3ccc(C(F)(F)F)cc3)c(C#N)c2)s1`, the “% Inhibition” value is recorded as 1% and the Z score is recorded as -0.13.

Take `Cc1ccc(F)c(CN2CCc3nc(N4CCCCC4)nc(Oc4ccc(F)c(F)c4)c3C2)c1`: the “% Inhibition” value stood at 9% and the Z score is listed as -1.21.

On to `COc1cc(OC)nc(C(=O)N2CC[C@H](Oc3ccc(C)cn3)C2)n1`, for which the “% Inhibition” value was -3% and the Z score is 0.49.

In the case of `CCN1C/C(=N\S(=O)(=O)c2ccc(C)cc2)N(CC)C1=O`, the “% Inhibition” value was 10% and the Z score is recorded as -1.97.

On to `CNc1cc(C(=O)NC[C@@H](CO)Cc2cccs2)ccn1`, for which the “% Inhibition” value is -11% and the Z score came to 1.15.

With `c1ccc(Nc2nc3nonc3nc2NC2CCCCC2)cc1`, the “% Inhibition” value was -2% and the Z score is 0.2.

For the molecule `Cc1ccc(-c2nc(N)nc3[nH]ncc23)c(-n2cccn2)c1`, the “% Inhibition” value is -9% and the Z score worked out at 1.8.

In the case of `CCc1nnc(CN2CCN(C(C)(C)C)c3ccccc32)o1`, the “% Inhibition” value is on record as -18% and the Z score worked out at 2.47.

`O=C(NC[C@H]1CS(=O)(=O)c2ccccc2O1)c1cscc1C(F)(F)F`: the “% Inhibition” value was determined as 0% and the Z score was -0.07.

For the molecule `CC(C)(C)COC(=O)NC[C@H]1CCN(C(=O)c2ccc[nH]2)C[C@@H]1O`, the “% Inhibition” value is on record as -8% and the Z score is recorded as 1.44.

In the case of `CC(C)(NCCCNS(C)(=O)=O)c1ccc(F)cc1Cl`, the “% Inhibition” value was found to be 7% and the Z score is given as -0.95.

As to `CN1CCc2[nH]cnc2C12CCN(C(=O)c1ccc3[nH]nnc3c1)CC2`, the “% Inhibition” value is listed as -9% and the Z score was 1.34.

For `O=C1NC[C@@H]2CCC[C@@H](CCOc3ccccc3C(=O)N3CCNC[C@@H]13)O2`, the “% Inhibition” value is on record as -1% and the Z score stood at 0.15.

On to `O=C(O)C1(n2cnc3ccccc32)CCN(c2ccncc2)CC1`, for which the “% Inhibition” value amounted to 15% and the Z score is recorded as -1.91.

Turning to `CCc1nc(C(=O)NC2CCN(c3[nH]cnc4ncnc3-4)CC2)c[nH]1`, the “% Inhibition” value is -1% and the Z score was determined as 0.15.
